The other results are listed elsewhere or left out.
Test system: PfHDP1 homeodomain (GST-tagged)
Experiment: gcPBM binding intensity (ln(normalized median fluorescence intensity)); higher = stronger DNA binding
In short: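 DNA-binding domains from P. falciparum, fused to GST and produced in E. coli, were put on an Agilent 4 × 180k double-stranded probe array for 1 h in 1× PBS holding 1% milk, 0.2 mg/ml BSA, 0.5% salmon testes DNA and 0.03% Triton X-100. Probes were primer-extended, 36 bp long and drawn from intergenic genomic regions, with negative controls included. After Alexa488 anti-GST antibody detection and a 488 nm scan, binding intensity was set as the highest Masliner-normalised natural-log median intensity across replicate spots of either probe orientation.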

Row | Sequence | gcPBM binding intensity (ln)
1 | ATTATGTTAAAAAGGCGTACATGTTATAAGGTCCTA [XGTACX_site344] | 6.5
2 | AACCATTAATTCTCTACACACTTTTATTTTATTTAG [CACACA_site1769] | 6.55
3 | ACTTTATATTTTGAACGTACAAAAAAAAAATTATGT [XGTACX_site5588] | 6.55
4 | GCACATATATACATACATACATACATACATATGTAT [TGCATGCA_negctrl_site95] | 6.92
5 | TTATATATTTTTACCATACACACATATAATAAATAT [CACACA_site3721] | 6.9
6 | ATAAAGATTTTCCAAGCATGCCACATAGTGAGATAC [TGCATGCA_site594] | 6.84
7 | ATCATAAAAGTATACACACATACATACATATGTACA [CACACA_site2641] | 6.83
8 | TATATATATATTATATGTACATATTCCTATATATAC [XGTACX_site7071] | 8.62
9 | TAAATATATATATATGTACACACTCCAATACATATA [CACACA_site8858] | 6.7
10 | TTATATGCATAAAAAGGTACACATATATAAATAAAT [XGTACX_site6894] | 6.68
11 | AACAACCAAACGCACACACACAAAAAAAAAAATATA [CACACA_site6326] | 7.51
12 | TTTGTGTAGGTGTGTAGTACATATAACTTATAACAT [XGTACX_site7885] | 7.04
13 | TAATAAAATGTACACGCATGCAATAGAATATAAAGT [TGCATGCA_site905] | 8.24
14 | ACATTTAAAATTTATGCATGTGGTGTTTTGTATATA [TGCATGCA_site534] | 6.81
15 | TATATTCATAATATTACACACGTTCATTTATTTTAA [CACACA_site2031] | 6.67
16 | TATGGTTTTAAAAAATGTACGCAAGTGCGTTAATTT [XGTACX_site3945] | 7.62
17 | GAGTGAAATATGCAAACACACACGAGAAAAATGTAT [CACACA_site3196] | 7.15
18 | TAATAAATAAAAATAGAACACACATATGTTTTTTTT [CACACA_site9185] | 6.17
19 | CAGTAGTATATACTATGTACATATTTATATTATATT [XGTACX_site4964] | 6.52
20 | AATATAAATAAACACACACACATATATATATATATT [CACACA_site2906] | 6.78
21 | AAAAAAAAAAAAAAATGTACATATATATAAATAAAA [XGTACX_site5574] | 6.44
22 | ATATTTATATATTGCACACAAAAAAAAAAAAAAATC [CACACA_site1629] | 10.4

Row | Sequence | gcPBM binding intensity (ln)
23 | TATATATATATGTAATGTACATAAATTTTATACCTT [XGTACX_site6991] | 9.06
24 | TATACAGATGGACACACACACATATATATATATATA [CACACA_site5272] | 9.36
25 | TTATAATTGTAAGGTAGTACATATAAATCAAATAAT [XGTACX_site7190] | 6.57
26 | ATGAATCTTTTAAAAAGTACATGTGAAAAAAATAAA [XGTACX_site49] | 6.62
27 | ATACAAACAATTATTTGTACATAAAATTTTTTTTTT [XGTACX_site90] | 6.21
28 | TTAAAATGTTGTAACGTGCACATTTTGTGGAAATCA [GTGCAC_site9559] | 9.65
29 | ATTTATTTCTTGTTAGTGCACTTTCTTTGGTAAAAT | 10.9
30 | AAATTTATAAAGAACACACACATATAAATATAAATA [CACACA_site6174] | 6.93
31 | TTATATATTTATATATGTACACATTTTACCATTTTT [XGTACX_site2142] | 6.22
32 | TTTTTTTGTTAAAAGGTGCTAATATATATAAGTGCT | 6.62
33 | GTCCCTATAAGGGGAACACACATAAATGAATATATA [CACACA_site1024] | 6.16
34 | TTTCTATATAGATTTGCACACATAAAAATGCTTATA [CACACA_site2390] | 10.2
35 | CTTTATACATGACATAGTACCCATTTTAGATTTGAA [XGTACX_site5240] | 6.54
36 | AAGGGAAAAATATGGTTGCACTAAAAATATGTAATT [GTGCAC_site9605] | 8.11
37 | AAACAAATAGACACTTGTACGTAAGTAAATAATTAA [XGTACX_site6157] | 6.37
38 | TATGTTAAAAAAAAAAAAAAGAAAAAAATAAAAGGA [CACACA_negctrl_site119] | 6.23
39 | TTTTTTTTTTTTACATGTACATATGAATTATAATAT [XGTACX_site5016] | 6.83
40 | TATTTTACTTTAAAAATGGAAAAAAAAAAGAATATT [CACACA_negctrl_site1360] | 6.27
41 | ATTGTCATCATTATATGTACGTAAAAGAATATAGAT [XGTACX_site3117] | 6.88
42 | GAAAGAAGCATAAATGTACACACATATTTATATATT [CACACA_site8368] | 6.54
43 | TTAATAAAACTAACACGTACACATATATAATATTAT [XGTACX_site3260] | 6.71
44 | CGTGGAAAAAAAAACACACACAAAAAAAAAAAAAAA [CACACA_site3997] | 6.34

From the supplement of paper PMC11417369
